In the supplement of paper PMC12217912:
The list shows a part of the results. Sequences were assembled here from the parent chain. Values near 0.05 are background.

B1: TEV protease; numbered along this chain (parent)
chain: MGESLFKGPRDYNPISSSICHLTNESDGHTTSLYGIGFGPFIITNKHLFRRNNGTLVVQSLHGVFKVKDTTTLQQHLVDGRDMIIIRMPKDFPPFPQKLKFREPQREERICLVTTNFQTKSMSSMVSDTSCTFPSGDGIFWKHWIQTKDGQCGSPLVSTRDGFIVGIHSASNFTNTNNYFTSVPKNFMELLTNQEAQQWVSGWRLNADSVLWGGHKVFMVKPEEPFQPVKEATQL

Variants of: B1
Assay: raw area under fraction-flipped curve 0-4 h after induction (AUC4h, not background-subtracted), DNA-recorder readout of cleavage of the substrate (dimensionless); higher = more cleavage of the substrate by the protease variant
Conditions: temperature: 34 °C; time window: 0-4 h after rhamnose induction
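Note: Bxb1 expression induced with 0.2% (w/v) L-rhamnose at OD600 near 0.5, cultures sampled hourly, flipped fraction per protease–substrate barcode pair counted by paired-end Illumina sequencing.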

Variant | area with substrate ENLYFQD | area with substrate ENLYFQL | area with substrate ENLYFQS | area with substrate ENLYFQW | area with substrate ENLYFQC | area with substrate ENLYFQF | area with substrate ENLYFQG | area with substrate ENLYFQH | area with substrate ENLYFQI | area with substrate ENLYFQK | area with substrate ENLYFQM | area with substrate ENLYFQN | area with substrate ENLYFQQ | area with substrate ENLYFQR | area with substrate ENLYFQT | area with substrate ENLYFQV | area with substrate ENLYFQP | area with substrate ENLYFQY | area with substrate ENLYFQE
L5R | 0.136 | 0.0593 | 0.111 | 0.07 |  |  |  |  |  |  |  |  |  |  |  |  |  |  | 
E25C | 0.0658 | 0.068 | 0.108 | 0.0676 | 0.108 | 0.0715 | 0.161 | 0.0653 | 0.0559 | 0.0604 | 0.0571 | 0.0924 | 0.0548 | 0.0586 | 0.0685 | 0.0681 |  |  | 
V200K | 0.0582 |  | 0.0801 |  |  |  |  |  |  |  |  |  |  |  |  |  |  |  | 
V200G |  |  | 0.0609 | 0.0533 |  | 0.0582 | 0.0492 |  | 0.0511 |  | 0.0547 | 0.0626 |  | 0.0588 | 0.0674 |  |  |  | 
P96C |  |  | 0.118 |  |  | 0.125 | 0.112 |  | 0.0538 |  | 0.128 | 0.0818 |  | 0.062 |  | 0.0594 | 0.0486 | 0.0661 | 
G37Q |  | 0.0457 | 0.0736 | 0.0345 | 0.0874 | 0.062 | 0.0709 | 0.0632 |  |  | 0.0602 | 0.0586 |  | 0.0492 | 0.0506 |  |  | 0.055 | 
G153V | 0.0381 | 0.0342 | 0.0486 | 0.045 |  |  | 0.0454 |  |  | 0.0575 | 0.0561 |  | 0.0707 |  | 0.0618 |  |  |  | 
G153R | 0.0515 |  | 0.0514 |  |  |  |  |  | 0.0563 |  |  |  |  |  |  |  |  |  | 
I85L | 0.0641 | 0.0695 | 0.113 |  | 0.138 |  |  | 0.0788 | 0.0653 |  | 0.112 |  |  | 0.0608 | 0.0696 | 0.064 | 0.0349 | 0.0748 | 
K216T | 0.0987 | 0.0566 | 0.0999 | 0.065 |  |  | 0.0663 |  |  |  | 0.0863 | 0.0799 |  | 0.0509 | 0.0676 | 0.0646 | 0.0587 | 0.0676 | 
K216V | 0.0876 | 0.0598 | 0.0979 |  | 0.105 |  | 0.0894 | 0.0698 | 0.0668 | 0.0475 |  | 0.0689 |  |  | 0.0646 | 0.0525 | 0.0621 | 0.0838 | 
P222W |  |  | 0.087 |  | 0.171 |  | 0.101 | 0.0489 | 0.0579 | 0.0647 | 0.0726 | 0.0754 | 0.128 | 0.0385 | 0.0615 | 0.0557 | 0.0913 |  | 
I145E | 0.0454 |  | 0.0664 | 0.0543 |  | 0.0598 |  |  |  |  | 0.063 |  |  | 0.0551 | 0.0453 |  |  |  | 
I145R | 0.0562 | 0.0561 | 0.0592 |  | 0.0649 |  |  |  |  |  |  | 0.055 |  | 0.0389 |  | 0.0613 | 0.0547 | 0.0673 | 0.0586
S18M | 0.0518 | 0.0674 | 0.101 |  | 0.101 | 0.0912 | 0.0972 | 0.0997 | 0.0535 |  |  | 0.0865 |  |  | 0.0642 |  |  | 0.0787 | 
G214S | 0.0406 | 0.0577 | 0.0939 | 0.0445 |  |  |  | 0.0761 |  |  | 0.0745 | 0.0713 |  | 0.0672 |  | 0.064 | 0.0506 |  | 
T115M | 0.0793 | 0.0435 | 0.105 | 0.0604 | 0.112 | 0.0904 | 0.0977 | 0.0822 | 0.0526 | 0.0674 | 0.0905 | 0.0693 |  | 0.0549 |  | 0.037 |  |  | 0.0287
